Assay results from publication PMC12820563, “FoxP3 forms a head-to-head dimer in vivo and stabilizes its multimerization on adjacent microsatellites”.
The other results are listed elsewhere or left out.

Target: T1, MBP-FoxP1dN (Mus musculus, UniProt P58462 326-579)
T1 sequence: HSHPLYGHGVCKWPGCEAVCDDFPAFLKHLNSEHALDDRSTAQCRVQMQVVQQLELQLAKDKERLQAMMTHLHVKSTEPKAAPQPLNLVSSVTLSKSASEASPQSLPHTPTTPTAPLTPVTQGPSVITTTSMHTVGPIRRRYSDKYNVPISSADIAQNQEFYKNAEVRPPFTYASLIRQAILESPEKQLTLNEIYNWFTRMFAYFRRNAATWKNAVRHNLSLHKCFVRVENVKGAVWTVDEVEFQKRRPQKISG
Assay: PD-seq (MBP pull-down with sequencing); 20 mM Tris-HCl pH 7.5, 100 mM NaCl, 1.5 mM MgCl2, 0.4 uM protein, 0.1 uM dsDNA library, 30 min, room temperature, amylose pull-down; high values mean tight binding
Conditions: protein: recombinant; tags: His6-MBP; chain copies: 2; dsDNA, one strand shown
Outline: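 Protein and DNA were mixed at 0.4 µM and 0.1 µM and held for 30 min at room temperature in Tris pH 7.5 buffer with NaCl and MgCl2; the protein was a His6-MBP-tagged, N-terminally truncated mouse FoxP3 or FoxP1 fragment from E. coli, and the DNA a Klenow-filled double-stranded degenerate library. Amylose resin captured the complexes, which were washed three times. Binding is read as reads-per-million enrichment of pull-down versus input after Illumina sequencing, with replicates pooled.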

| Sequence | binding signal |
| --- | --- |
| GATGATTGTTCTCCCAGCTGATGAATTAGGGGCTTCGAGTAAACAAATTTTCCTAATCTTTCTGTTCAAGCGCCATCTAC | 0.857 RPM ratio (pull-down/input) |
| GATGATTGTTCTCCCAGCTGATGAATTAGTGCGCTCGAGTAAACAAATTTTCCTAATCTTTCTGTTCAAGCGCCATCTAC | 0.918 RPM ratio (pull-down/input) |
| GATGATTGTTCTCCCAGCTGATGAATTTTGTGGGTCGAGTAAACAAATTTTCCTAATCTTTCTGTTCAAGCGCCATCTAC | 0.945 RPM ratio (pull-down/input) |
| GATGATTGTTCTCCCAGCTGATGAATTGCACTCCTCGAGTAAACAAATTTTCCTAATCTTTCTGTTCAAGCGCCATCTAC | 1.15 RPM ratio (pull-down/input) |
| GATGATTGTTCTCCCAGCTGATGAATTTTGTGACTCGAGTAAACAAATTTTCCTAATCTTTCTGTTCAAGCGCCATCTAC | 1.03 RPM ratio (pull-down/input) |
| GATGATTGTTCTCCCAGCTGATGAATTAGACGATTCGAGTAAACAAATTTTCCTAATCTTTCTGTTCAAGCGCCATCTAC | 0.874 RPM ratio (pull-down/input) |
| GATGATTGTTCTCCCAGCTGATGAATTGTCGCGCTCGAGTAAACAAATTTTCCTAATCTTTCTGTTCAAGCGCCATCTAC | 0.966 RPM ratio (pull-down/input) |
| GATGATTGTTCTCCCAGCTGATGAATTTAATGCTTCGAGTAAACAAATTTTCCTAATCTTTCTGTTCAAGCGCCATCTAC | 1.05 RPM ratio (pull-down/input) |
| GATGATTGTTCTCCCAGCTGATGAATTAGACACGTCGAGTAAACAAATTTTCCTAATCTTTCTGTTCAAGCGCCATCTAC | 0.986 RPM ratio (pull-down/input) |
| GATGATTGTTCTCCCAGCTGATGAATTTTTCTACTCGAGTAAACAAATTTTCCTAATCTTTCTGTTCAAGCGCCATCTAC | 0.938 RPM ratio (pull-down/input) |
| GATGATTGTTCTCCCAGCTGATGAATTTGGAGCCTCGAGTAAACAAATTTTCCTAATCTTTCTGTTCAAGCGCCATCTAC | 0.853 RPM ratio (pull-down/input) |
| GATGATTGTTCTCCCAGCTGATGAATTGAATCACTCGAGTAAACAAATTTTCCTAATCTTTCTGTTCAAGCGCCATCTAC | 0.936 RPM ratio (pull-down/input) |
| GATGATTGTTCTCCCAGCTGATGAATTCTCAGGCTCGAGTAAACAAATTTTCCTAATCTTTCTGTTCAAGCGCCATCTAC | 0.852 RPM ratio (pull-down/input) |
| GATGATTGTTCTCCCAGCTGATGAATTCATACGGTCGAGTAAACAAATTTTCCTAATCTTTCTGTTCAAGCGCCATCTAC | 0.84 RPM ratio (pull-down/input) |
| GATGATTGTTCTCCCAGCTGATGAATTCGATTCTTCGAGTAAACAAATTTTCCTAATCTTTCTGTTCAAGCGCCATCTAC | 0.855 RPM ratio (pull-down/input) |
| GATGATTGTTCTCCCAGCTGATGAATTTCACCAATCGAGTAAACAAATTTTCCTAATCTTTCTGTTCAAGCGCCATCTAC | 1.04 RPM ratio (pull-down/input) |
| GATGATTGTTCTCCCAGCTGATGAATTCGCGGTGTCGAGTAAACAAATTTTCCTAATCTTTCTGTTCAAGCGCCATCTAC | 0.858 RPM ratio (pull-down/input) |
| GATGATTGTTCTCCCAGCTGATGAATTAATGGGGTCGAGTAAACAAATTTTCCTAATCTTTCTGTTCAAGCGCCATCTAC | 0.798 RPM ratio (pull-down/input) |
